Assay in all cases: ELISA, plate coated with GST-PA domain protein
A general note: ELISA stands for enzyme-linked immunosorbent assay.

Chains of the proteins cited; added tags and fusions are not shown. Residues count along the entry.
GST fusion of protective antigen domain 1 (P13423, residues 30-287): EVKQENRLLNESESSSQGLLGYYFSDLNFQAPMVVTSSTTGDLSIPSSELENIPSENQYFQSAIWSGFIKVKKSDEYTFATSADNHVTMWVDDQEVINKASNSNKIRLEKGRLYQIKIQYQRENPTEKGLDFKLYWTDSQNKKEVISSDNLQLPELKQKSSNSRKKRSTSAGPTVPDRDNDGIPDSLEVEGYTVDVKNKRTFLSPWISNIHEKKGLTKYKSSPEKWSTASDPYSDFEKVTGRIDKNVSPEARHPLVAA
GST fusion of protective antigen domains 3 to 4 (P13423, residues 517-764): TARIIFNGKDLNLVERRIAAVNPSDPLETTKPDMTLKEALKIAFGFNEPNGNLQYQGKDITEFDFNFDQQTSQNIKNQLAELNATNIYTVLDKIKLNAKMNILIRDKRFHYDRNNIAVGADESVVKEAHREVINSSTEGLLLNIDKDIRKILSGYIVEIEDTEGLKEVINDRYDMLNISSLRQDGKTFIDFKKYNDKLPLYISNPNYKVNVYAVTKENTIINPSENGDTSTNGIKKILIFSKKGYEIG
GST fusion of protective antigen domain 4 (P13423, residues 625-764): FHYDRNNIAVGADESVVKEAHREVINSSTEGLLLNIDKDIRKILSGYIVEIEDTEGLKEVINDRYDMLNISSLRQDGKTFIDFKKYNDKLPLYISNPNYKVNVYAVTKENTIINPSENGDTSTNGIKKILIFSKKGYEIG

The target in test [1] is GST fusion of protective antigen domain 4 (Bacillus anthracis) (UniProt P13423).
For test [2], the target named is GST fusion of protective antigen domain 1 (Bacillus anthracis) (UniProt P13423).
For test [3], the target named is GST fusion of protective antigen domains 3 to 4 (Bacillus anthracis) (UniProt P13423).

No constants are given. Whether binding was seen depends on the method and setting. Some entries that bind do so weakly or less than the wild type.

The source of these data is patent US20060258842A1.

B1: human monoclonal antibody IQNPA-1 (antibody, V domains shown)
VH: QVQLVQSGAEVKKPGASVKVSCKASGYTFTSNAIQWVRQAPGQRLEWVGWINGGDGNTKYSQKFQGRVTISRDISASTAYMELSSLRSEDTAVYYCARHRLQRGGFDPWGQGTLVTVSS
VL: EIVLTQSPGTLSLSPGERATLSCRASQSVSYSSLAWYQQKPGQAPSLLIYGASSRATGIPDRFSGSGSGPDFTLTISRLEPEDFAVYYCQHYGNSPYTFGQGTKLEIKR
With B1, the binding entry in test [1] was “binds”; in test [2], “no binding (tested: starting dilution 1:100 of 0.77 mg/ml)”; in test [3], “binds”.

B2: human monoclonal antibody IQNPA-2 (antibody, V domains shown)
VH: B1 VH
VL: B1 VL
In the case of B2, the binding result in test [1] is given as “binds”; in test [2], “no binding (tested: starting dilution 1:100 of 0.65 mg/ml)”; in test [3] it was “binds”.
